The results in this text go back to the RNAGym collection of RNA variant scans (doi:10.7554/elife.90254).

B1: LINE1-mini (parent)
chain: GGCAGAGCUCAACACAGCGUGGCAAAGUGGCUGUGGCUAGACUGCC

The source gives no read counts; variants with many changes may rest on few reads.

Variants of B1 are the subject of the data set. The data set is described as follows: self-cleavage, relative activity (ratio to wild type); higher = more cleavage; in vitro, sequencing; the parent is a self-cleaving ribozyme.
On to GGCACAGCUCAUCACAGCGUGGUGAAGUGGCUGUGGCUAGACUGCC [G5C A12U C23U A24G], for which the self-cleavage came to 0.01. GGCAAAGCUCAACACAGCGAGGCAUAGCGGCUGUGGCUAGACUGCA [G5A U20A A25U U28C C46A]: the self-cleavage was found to be 0.07. Then GGCACUGCUAAAAACAGCGUGGCAAAGUGGCAGUGGCAAGACUGCC [G5C A6U C10A C13A U32A U38A], with 0.02; and GGCACAGCUCAUCACAGCGUGGCAAAGUGGCUGUGUCUAGACUGCC [G5C A12U G36U], with 0.09; and GGCACAGCUCACCACAACGUGGCAAAGUGGCUGUGGCUAGACUGCC [G5C A12C G17A], with 0.03. As for GGCACAGCUCUAUCCAGCCUGGCAAAGUGGAUAUGGCUAGACUGCC [G5C A11U C13U A14C G19C C31A G33A], the self-cleavage came out at 0.01. With GGCAAAGCUCAACACAGCGUGGCAAAGUGGCAGUGGAUAGACUGCC [G5A U32A C37A], the self-cleavage stood at 0.03. The same measure for GGCACAGCUCUACACAGCGUGUCAAAGUGGCUGUGGCUAGACUGCC [G5C A11U G22U]: 0.04; for GGCACAGCUCACCACAGCUUGGCAAAGUAGCUGUGGCUAGACUGCC [G5C A12C G19U G29A]: 0.01. The same measure for GGCACAGCUCCACACAGCGUGGCACAGUGGCUGUGGCUAGACUGCC [G5C A11C A25C]: 0; for GGCAAAGCUCAACACAGCGGGGCAAAGUGGCUGUUGCUAGACUGCC [G5A U20G G35U]: 0.07; for GGCAAAGCUCAACACAGCGCGGCAAAGUGGCUGUGGCUAGACUGUC [G5A U20C C45U]: 0.19. For GGCACUGAUCAACACAGCGUUGCAAAGUGGCUGUAGUUAGACUGCC [G5C A6U C8A G21U G35A C37U], the self-cleavage was found to be 0.06. As for GGCAAAGCUCAACACAGCGUGGCAAAGUGGCCGUGACUAGACUGCC [G5A U32C G36A], the self-cleavage came to 0.05. In the case of GGCACGGCUCAACACAGCGUGGCAAACUUGCUGUGGCUAGACUGCC [G5C A6G G27C G29U], the self-cleavage amounted to 0.02.

As for GGCACAGCUCACCACAGCGUGGCAAAGUUGCUGUGGCUAGACUGCC [G5C A12C G29U], the self-cleavage amounted to 0.05. Turning to GGCACAGCUCAGCACACCGUGGCAAAGUGGCUGUGGCUGGACUGCC [G5C A12G G17C A39G], the self-cleavage was 0.01. The same measure for GGCACUGCACAACACAUCGUGGCAAAGUUGCUGUGGCUAGACUGCC [G5C A6U U9A G17U G29U]: 0.05. Then GGCACUGCUCAACACAGCGUGGCAAAGUGGCUUUGGCUAGACUGCC [G5C A6U G33U], with 0.27; and GGCACAGCUCACAACAGCGUGGCAAAGUGGCUGUGGCUAGACUGCC [G5C A12C C13A], with 0.02; and GGCACUGCUCAACACAGCGUCGAAAAGUGGCUGUGGCUAGAUUGCC [G5C A6U G21C C23A C42U], with 0.72.

As to GGCACAGCUCCACACAGCGUGGCCAAGUGGCUGUGGCUAGACUGCC [G5C A11C A24C], the self-cleavage was found to be 0. For GGCACCACUCAACACAUCGUGGCAAAGUGGCUGUGGCUAAACUGCC [G5C A6C G7A G17U G40A], the self-cleavage was 0.08. Regarding GGCAAAGCUCAACACAGCGGGUCCAAGUGGCUGUGGCUAGACUGCC [G5A U20G G22U A24C], the self-cleavage is 0.03. Then GGCAAAGCUCAACACAGCGCGGCAAAGUGGCUGUCGCUGGACUGCC [G5A U20C G35C A39G], with 0.02; and GGCACAGCUCGUCACAUCGUGGCAAAGUGGCUGUGGCUCGACUGAC [G5C A11G A12U G17U A39C C45A], with 0.01. The same measure for GGCACAGCUCACCACAGCGUUGCAAAGUGGCUGUGGCUAGACUGCC [G5C A12C G21U]: 0.03; for GGCAAAGCUCAACACAGCGUGGCAAAGUGGCUGUGGCGAGUCUGCC [G5A U38G A41U]: 0.04; for GGCAAAGCUCAACACAGCGUGGCAAAGUGGCGGUGGCUAGACUGAC [G5A U32G C45A]: 0.03. Take GGCACAGCUCUACACAGCGUGGCGAAGUGGCUGUGGCUAGACUGCC [G5C A11U A24G]: the self-cleavage amounted to 0.05. The same measure for GGCACCGUUUCACACAGAGUGGCAAAGUGGCUGUGGCUAGACUGCC [G5C A6C C8U C10U A11C C18A]: 0.03. The same measure for GGCAAAGCUCAACACAGCGAGGCAAAGUGGCUUUGCCUAGACUGCC [G5A U20A G33U G36C]: 0.04. The same measure for GGCACAGCUCUACACAGCGUGACUAAGUGGCUAUGGCUAGACUGCA [G5C A11U G22A A24U G33A C46A]: 0.02.

For the variant GGCACAGCUCUACACAGCGUGGCAAAGUGGCUGUGGCUGGACUGCC [G5C A11U A39G], the self-cleavage stood at 0. Take GGCACCGCACAACACAGCGUGGCAAAGUGGCUGUGGCUAGACUGCC [G5C A6C U9A]: the self-cleavage worked out at 0.29. Turning to GGCACGGGUCAACACAGCGUGGCAAAGUGGCUGAGGCUUGACUGCC [G5C A6G C8G U34A A39U], the self-cleavage turned out to be 0.02.

In the case of GGCACAGCUCACCAUACCGUGGCCAAGUGGCUGUGGCUAGACUGCC [G5C A12C C15U G17C A24C], the self-cleavage stood at 0.03. Turning to GGCACCGCUCAACACAGCGUGGCUUAGUGGCUGUGGCUAGACUGCC [G5C A6C A24U A25U], the self-cleavage is 0.09.

With GGCACAGCUCAGCACACCGCGGCAAAGUGGCUGUGGCAAGACUGCC [G5C A12G G17C U20C U38A], the self-cleavage came out at 0.07. For GGCACGGCUCAACACAGCGUGGCAAAGUGGCUGUGGCUAGAUUGAC [G5C A6G C42U C45A], the self-cleavage is 0.17. Then GGCACCGCUCAACUCAGCGUGGCAAAGGGGCUGUGGCUAUACUGCC [G5C A6C A14U U28G G40U], with 0.03; and GGCACCUCUCAACACAGCGUGGCAAAGCGGCUGUGGCUAGACUGCC [G5C A6C G7U U28C], with 0.18.

In the case of GGCACUGCUCAACACAGCGUGGCAAAGUGGCUGUGGCUAGACUCCC [G5C A6U G44C], the self-cleavage turned out to be 0.04. Take GGCACCGCUAAACACUGAGUGGCAAAGUGGCUGUGGCUAGCCUGCC [G5C A6C C10A A16U C18A A41C]: the self-cleavage turned out to be 0.03. The same measure for GGCACCGCUCAACGCAGCGUGGCAAGGUGGCUGUGGCUAGUCUGCC [G5C A6C A14G A26G A41U]: 0.02; for GGCACAGCUCUACACAGCGUAGCAAAGUAGCUGUGGCUAGACUGCC [G5C A11U G21A G29A]: 0.03.

As for GGCAAAGCUCAACACAGCGAGGCAAAGUGGCUGUGGCUAGACUGCU [G5A U20A C46U], the self-cleavage came out at 0.09.

Regarding GGCAAAGCUCAACACAGCGGGGCAAAGUGGCUGUGGCGAGACUGCC [G5A U20G U38G], the self-cleavage came to 0.04. The same measure for GGCACAGCUCCACACACCGUGGCAAAGUGGCUGUGGCUAGACUGCC [G5C A11C G17C]: 0.03; for GGCACAGCUCUACACAGCGUCGCAAAGUGGCUGUGGCUAGACUGCC [G5C A11U G21C]: 0.03; for GGCACAGCUCUACAGAGCCUGGCAAAUUGGCUGUGGCUAGACUGCC [G5C A11U C15G G19C G27U]: 0.01. For GGCACAGCUCGACACAGCGUGGCAAAGUGACUGUGGCUAUACUGCC [G5C A11G G30A G40U], the self-cleavage was 0.02. On to GGCACAGCUCCACUCAGAGUGGCAAAGUGGCUGUGGCUAGACUGCA [G5C A11C A14U C18A C46A], for which the self-cleavage was 0.02. Then GGCACAGCUCUACACAGCGUGGCAAAGUGGCUGGGGCUAGACUGCC [G5C A11U U34G], with 0; and GGCACGGCUCAACACAGCGUGGGAAAGUGGCUGUGGAUCGACAGCC [G5C A6G C23G C37A A39C U43A], with 0.45. In the case of GGCAAAGCUCAACACAGCGUGGCAAAGAGGCUGUGGCUAGACCGCC [G5A U28A U43C], the self-cleavage is 0.04.
